Test results taken from the RNAGym collection of RNA variant scans (doi:10.1073/pnas.2313332121).
Variants at the floor of the assay are shown more often than the library holds them.

B1: TPR 5TU (parent)
chain: GGAUCUUCUCGAUCUAACAAAAAAGACAAAUCUGCCACAAAGCUUGAGAGCAUCUUCGGAUGCAGAGGCGGCAGCCUUCGGUGGCGCGAUAGCGCCAACGUUCUCAACUAUGACACGCAAAACGCGUGCUCCGUUGAAUGGAGUUUAUCAUG

Variants of: B1
Assay: polymerase ribozyme fitness, log enrichment relative to wild type (log ratio); higher = more active; in vitro selection for triplet polymerase activity
Procedure, shortened: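 Mutant libraries were PCR-built and transcribed for each subunit of a heterodimeric triplet polymerase ribozyme and selected for one round in triplicate at −7 °C, frozen, before gel excision of extended constructs and streptavidin-bead capture. Input and output libraries were Illumina-sequenced, keeping genotypes with ≥10 input reads and ≥1 read per output. Fitness is a logarithmic ratio of genotype to wild-type enrichment, in base 2, using inverse-variance-weighted replicate averages.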

For A17C C76U G92U C129A, which “polymerase ribozyme fitness (log ratio)” value is on record?
The value was -3.05.

For A17U A52G G58C G86U A97G C125A, which “polymerase ribozyme fitness (log ratio)” value is on record?
The value was at most -4.2.

With A17G G48A C87G C93A A97U G140A as the variant, how does the “polymerase ribozyme fitness (log ratio)” value read?
Its value is at most -4.2.

With C18G A29U C57G G94C A113C A138G as the variant, how does the “polymerase ribozyme fitness (log ratio)” value read?
Its value is at most -4.2.

For A17C G141U, which “polymerase ribozyme fitness (log ratio)” value is on record?
Its value is 1.61.

Which “polymerase ribozyme fitness (log ratio)” value does the source give for A17U G48C C75A G80A G81C A91G here?
Its value is at most -4.2.

For A17U G58C G80C C93U, which “polymerase ribozyme fitness (log ratio)” value is on record?
Its value is at most -4.2.

With A17G A22G C43A A49U C57U G71U as the variant, how does the “polymerase ribozyme fitness (log ratio)” value read?
Its value is at most -4.2.

Which “polymerase ribozyme fitness (log ratio)” value does the source give for A17C U31C A47C U55A C76U G84U here?
Its value is -3.49.

Which “polymerase ribozyme fitness (log ratio)” value does the source give for A17U A22U A29G A47U C63A A73U here?
The value was at most -4.2.

Which “polymerase ribozyme fitness (log ratio)” value does the source give for A17U A30G C99A here?
Its value is at most -4.2.

Which “polymerase ribozyme fitness (log ratio)” value does the source give for A17G C18G A19U G42C C87G A110G here?
Its value is at most -4.2.

With A17G U31C C38U C51U G68U C75U G100A U144C as the variant, how does the “polymerase ribozyme fitness (log ratio)” value read?
The value was at most -4.2.

Which “polymerase ribozyme fitness (log ratio)” value does the source give for A17G A20C U44C C57G G59C C99U C129A here?
Its value is at most -4.2.

Which “polymerase ribozyme fitness (log ratio)” value does the source give for A17G C35A C63G C79G G92C C96U here?
The value was at most -4.2.

With C18A C96G C108A U109A A115G A142G as the variant, how does the “polymerase ribozyme fitness (log ratio)” value read?
The value was at most -4.2.

For A17G C32A G42A A60C G68C C85G U111G, which “polymerase ribozyme fitness (log ratio)” value is on record?
The value was at most -4.2.

For A17C C32U G50C U55A, which “polymerase ribozyme fitness (log ratio)” value is on record?
The value was at most -4.2.

For A17U A28U A91G A106G C118U G128U G140C, which “polymerase ribozyme fitness (log ratio)” value is on record?
Its value is at most -4.2.

With A17U C18U A22G C43U C51U C85A G86U as the variant, how does the “polymerase ribozyme fitness (log ratio)” value read?
The value was at most -4.2.

With A17U A40U C123U as the variant, how does the “polymerase ribozyme fitness (log ratio)” value read?
Its value is -0.36.

With A17C U44A U77G C87U G126U U144G as the variant, how does the “polymerase ribozyme fitness (log ratio)” value read?
The value was at most -4.2.

With A17G A91U C114A G143C as the variant, how does the “polymerase ribozyme fitness (log ratio)” value read?
Its value is at most -4.2.

Which “polymerase ribozyme fitness (log ratio)” value does the source give for A17U C51U C57U C85G C93U A107G C129A here?
Its value is at most -4.2.

Which “polymerase ribozyme fitness (log ratio)” value does the source give for A17U A22U A23U A39G G68A G80A U134C G143C here?
Its value is at most -4.2.

For A17U C35G G48C A49U G86A A91C G124C U148A, which “polymerase ribozyme fitness (log ratio)” value is on record?
The value was at most -4.2.

With A17U C38U C95U U102G A106U U148A as the variant, how does the “polymerase ribozyme fitness (log ratio)” value read?
Its value is at most -4.2.

Which “polymerase ribozyme fitness (log ratio)” value does the source give for A17U A28U G50C C125G here?
Its value is at most -4.2.

Which “polymerase ribozyme fitness (log ratio)” value does the source give for C18A C75A C85G C132G A138G U148G here?
The value was at most -4.2.

With A17U G50A A73G U77G A120G as the variant, how does the “polymerase ribozyme fitness (log ratio)” value read?
Its value is at most -4.2.

Which “polymerase ribozyme fitness (log ratio)” value does the source give for A17U A47C A60G C75U G143U here?
Its value is at most -4.2.

Which “polymerase ribozyme fitness (log ratio)” value does the source give for A17G U90C C93U C105G A122G G143C here?
The value was at most -4.2.

Which “polymerase ribozyme fitness (log ratio)” value does the source give for A17G U56G G81U A91U C96A A150G here?
Its value is at most -4.2.

With C18G A21G A24U A41C U53G C54G G84U G92U C93G A120G as the variant, how does the “polymerase ribozyme fitness (log ratio)” value read?
The value was at most -4.2.

For A17G C38G C43G U61G C95U G128A, which “polymerase ribozyme fitness (log ratio)” value is on record?
Its value is at most -4.2.

With A17U A39C G46A G48A as the variant, how does the “polymerase ribozyme fitness (log ratio)” value read?
Its value is at most -4.2.

For C18G A19U G50A C51U G67A G92C C129U G141A, which “polymerase ribozyme fitness (log ratio)” value is on record?
Its value is at most -4.2.

For A17U G25C U44A C87G G94A G140A, which “polymerase ribozyme fitness (log ratio)” value is on record?
The value was at most -4.2.

Which “polymerase ribozyme fitness (log ratio)” value does the source give for A17C U56G C76G here?
Its value is at most -4.2.

Which “polymerase ribozyme fitness (log ratio)” value does the source give for A17U C51U U55A U78A G81C C123G here?
Its value is at most -4.2.

For C18A G94C C108G, which “polymerase ribozyme fitness (log ratio)” value is on record?
Its value is at most -4.2.

Which “polymerase ribozyme fitness (log ratio)” value does the source give for A17G C76G here?
The value was at most -4.2.

For A17U A20C G25A C27U G68U A97U G100C C116G G141C, which “polymerase ribozyme fitness (log ratio)” value is on record?
Its value is at most -4.2.

For C18A A89G U90G A97G, which “polymerase ribozyme fitness (log ratio)” value is on record?
Its value is at most -4.2.

For C18G A29C C32A, which “polymerase ribozyme fitness (log ratio)” value is on record?
Its value is at most -4.2.

For A17U G46U G84A C105U, which “polymerase ribozyme fitness (log ratio)” value is on record?
The value was -0.266.

Which “polymerase ribozyme fitness (log ratio)” value does the source give for A17U G94C C105A G141C here?
Its value is at most -4.2.

Which “polymerase ribozyme fitness (log ratio)” value does the source give for A17G C108U here?
Its value is -3.09.

Which “polymerase ribozyme fitness (log ratio)” value does the source give for A17C G83A G86A U111G G143A here?
The value was at most -4.2.

With A17G A28C C35A G133U G141C as the variant, how does the “polymerase ribozyme fitness (log ratio)” value read?
Its value is at most -4.2.

For A17G A20U A49G A60G C79A C93U G152U, which “polymerase ribozyme fitness (log ratio)” value is on record?
The value was at most -4.2.

With A17U G50C C105G G124A C132U A138C as the variant, how does the “polymerase ribozyme fitness (log ratio)” value read?
The value was at most -4.2.

With A17U U53G C57U G59C G117U as the variant, how does the “polymerase ribozyme fitness (log ratio)” value read?
The value was -0.451.

With A17U A19G A97U C129G U135C as the variant, how does the “polymerase ribozyme fitness (log ratio)” value read?
Its value is at most -4.2.

For A17U A22U G84U C95U A97U U102C C125A, which “polymerase ribozyme fitness (log ratio)” value is on record?
The value was at most -4.2.

Which “polymerase ribozyme fitness (log ratio)” value does the source give for A17G C18U A20C A37U U55G G70A U144A here?
The value was at most -4.2.

With A17C C36U A52C G80U G84C A107U U144C as the variant, how does the “polymerase ribozyme fitness (log ratio)” value read?
The value was at most -4.2.

For C18A A19C A40C C85U, which “polymerase ribozyme fitness (log ratio)” value is on record?
The value was 0.244.

For A17U A52C C99U C105U G124A G126C, which “polymerase ribozyme fitness (log ratio)” value is on record?
Its value is at most -4.2.

With A17U A20G G42C C85U G128C as the variant, how does the “polymerase ribozyme fitness (log ratio)” value read?
The value was at most -4.2.

For A17U A19U U56C C57U C93U A113C C118A, which “polymerase ribozyme fitness (log ratio)” value is on record?
The value was at most -4.2.

With A17G U33C A60G C75A C87U as the variant, how does the “polymerase ribozyme fitness (log ratio)” value read?
Its value is at most -4.2.

For A17U A29G G58A C87U A89G U130C G152U, which “polymerase ribozyme fitness (log ratio)” value is on record?
Its value is at most -4.2.

For A17U C51U G83C A91U U139A G140A G141A U148C, which “polymerase ribozyme fitness (log ratio)” value is on record?
Its value is at most -4.2.

With A17U C54A A89C C99A G136A as the variant, how does the “polymerase ribozyme fitness (log ratio)” value read?
The value was -4.03.

Which “polymerase ribozyme fitness (log ratio)” value does the source give for A17G A30G C51U G68A A89U U109G C149G here?
Its value is at most -4.2.

With A17U A30U G68U C123U U146A as the variant, how does the “polymerase ribozyme fitness (log ratio)” value read?
The value was at most -4.2.

With A17U A21U C27U G42C C95A U101G U102A as the variant, how does the “polymerase ribozyme fitness (log ratio)” value read?
Its value is at most -4.2.

Which “polymerase ribozyme fitness (log ratio)” value does the source give for A17U A47G U77A G88A A89U here?
The value was at most -4.2.

For C18A U55G C85A C118U, which “polymerase ribozyme fitness (log ratio)” value is on record?
Its value is -2.09.

For A17C C35U C38U A39U G117A, which “polymerase ribozyme fitness (log ratio)” value is on record?
Its value is at most -4.2.

For A17G A21C A73U A91G G100U G140U A142G, which “polymerase ribozyme fitness (log ratio)” value is on record?
The value was at most -4.2.

For A17C C32A U82A G88C C129U, which “polymerase ribozyme fitness (log ratio)” value is on record?
The value was at most -4.2.

For A17U A30U U55C C116U, which “polymerase ribozyme fitness (log ratio)” value is on record?
Its value is -4.01.

For A17C U55C G88C A91C U130G G136A A142G, which “polymerase ribozyme fitness (log ratio)” value is on record?
The value was at most -4.2.

With A17U A26C C38U G83A G124U as the variant, how does the “polymerase ribozyme fitness (log ratio)” value read?
The value was -3.97.

Which “polymerase ribozyme fitness (log ratio)” value does the source give for C18G A22C U45A G88U A89U G92C C99G here?
The value was at most -4.2.

With A17U A49G G86U G140A as the variant, how does the “polymerase ribozyme fitness (log ratio)” value read?
The value was at most -4.2.

For A17G A26C C32U G59A C75U, which “polymerase ribozyme fitness (log ratio)” value is on record?
The value was at most -4.2.

Which “polymerase ribozyme fitness (log ratio)” value does the source give for C18G A21G G88U G126C here?
Its value is at most -4.2.

With A17U G81C U102G U130G G141A as the variant, how does the “polymerase ribozyme fitness (log ratio)” value read?
Its value is at most -4.2.

Which “polymerase ribozyme fitness (log ratio)” value does the source give for A17G U31A U90G U148A here?
Its value is at most -4.2.

With A17C C32A U53A G67A G74C U101A as the variant, how does the “polymerase ribozyme fitness (log ratio)” value read?
Its value is at most -4.2.
